IFI data for 89 compounds are collected here from ChEMBL document CHEMBL1157539, “Thousands of chemical starting points for antimalarial lead identification” (Nature, 2010).

SMILES strings stand for the structures. The full ranking holds about 13,000 compounds; the median of “IFI” is about 4, and the highest 2% start at about 17. The list shows a part of the results.

The nature of this assay: GSK_TCMDC: Inhibition Frequency Index (IFI). The number of non-kinase HTS assays where a compound showed > 50 % inhibition, expressed as a percentage of the number of such assays in which the compound was tested (-0 is zero). Type of assay: functional.
As for `CN(CCON1C(=N)N=C(N)NC1(C)C)c1ccccc1`, the IFI stood at 4.96%. With `Cc1nnsc1C(=O)Nc1ccc(-c2cccc(-c3nc4cccc(C)c4[nH]3)c2)cc1`, the IFI was 6.19%. Turning to `Cc1cccc2nc(-c3ccc(-c4cccc(CNCCCN5CCCC5=O)c4)s3)[nH]c12`, the IFI was 3.81%. In the case of `Cc1cnn(-c2cccc(C(=O)NC3CCC(CCN4CCc5ccc(C#N)cc5CC4)CC3)c2)c1` (centres undefined), the IFI was 3.03%. Then `Cc1ccc(-n2nc(-c3ccccc3)c3cc(C(=O)NCCN)sc32)cc1`, with 9.52%. Then `CCOc1ccc2[nH]c(C)cc(=NN=Cc3ccccc3)c2c1`, with 1.53%; and `NC(=O)C1CCN(Cc2ccc(-c3ccc(-c4nc5cc(F)ccc5[nH]4)cc3)cc2)CC1`, with 4.72%. `CCOc1cc(C)ccc1C1CCN(CCN2CCC(CNC(=O)c3ccc(-c4ccc(C(F)(F)F)cc4)cc3)CC2)CC1` yielded an IFI of 8.11%. The result for `CC(=O)Nc1ccc([N+](=O)[O-])c2c(Br)cccc12` reads 1.25%. The result for `COc1cc(OC)cc(C(=O)Nc2nc(-c3ccc(NC(=O)c4ccccc4)cc3)cs2)c1` reads -0%; that for `CCc1ccccc1N=C1c2c(cccc2[N+](=O)[O-])C(=O)C1C(C)=O` (centres undefined), 2.17%; that for `O=C(CCC1CCCC1)N(Cc1ccc(-c2ccc(CNCCc3ccccc3)cc2)cc1)C1CCCNC1` (centres undefined), 4.38%. The result for `N=C(N)NCC=C(c1ccccc1)c1ccccc1` reads 2.96%; that for `COc1cccc2cc(C(=O)N[C@@H](CC(C)C)C(=O)NC3CC[C@@H](C)N(C(=O)Nc4ccncc4)CC3=O)oc12` (some centres undefined), 5.41%; that for `O=c1cc(NCCCNCc2cccc3c2OC(F)(F)O3)[nH]c2ccccc12`, 1.45%.

Compound `O=C(NCCc1ccccc1)N(Cc1ccccc1-c1cccc(CNC2CCCC2)c1)C1CCN(Cc2ccccc2)CC1` registered an IFI of 8.45%. Then `COC(=O)c1ccc2nc(-c3ccc(/C=C/C(=O)NC4CCN(Cc5ccccc5)CC4)cc3)[nH]c2c1`, with 2.27%; and `CCN1C(=O)N(CCC(C)C)C2(CCN(Cc3ccc(OC)cc3O)CC2)C1=O`, with 0%. Then `Cn1c(N)c(C(=O)CSc2nnc(-c3cccs3)n2Cc2ccccc2)c(=O)n(C)c1=O`, with 0.87%; and `CN(C)CCCc1cc(NC(=O)Nc2cccc(Cl)c2Cl)ccc1I`, with 2.9%; and `O=C(NCCCCN1CCC(c2c[nH]c3ccc(-c4ccccc4)cc23)CC1)c1ccc(-c2ccccc2)cc1`, with 9.46%.

`Cc1nc(C)c(-c2ccc(S(=O)(=O)c3ccc(Cl)cc3)cc2)c(O)c1Br` gave an IFI of 0%.

Compound `O=C(NC1CC1)c1cnc(N2CCC(Cc3ccccc3)CC2)c(Cl)c1` gave an IFI of 9.52%. For `CC(=O)Nc1ccc2[nH]cc(C3CCN(CCC4CCN(C(=O)/C=C/c5ccc(Cl)c(Cl)c5)CC4)CC3)c2n1`, the IFI came to 2.13%. The result for `Cc1nc(-c2ccc(-c3ccc(C(=O)Nc4ccc(-n5ccnc5)c(N5CCN(C)CC5)c4)cc3)c(C)c2)no1` reads 6.38%; that for `CC(C)c1ccc(OCC(O)CN(CCN2CCOCC2)C(=O)Nc2ccc(Br)cc2)cc1` (centres undefined), 2.86%; that for `CC(O)C1CCCCN1C(=O)c1ccc(-c2ccc(-c3nc4cc(F)ccc4[nH]3)cc2)cc1` (centres undefined), 5.66%. Then `O=C(NC(NC(=S)Nc1ccc([N+](=O)[O-])cc1)C(Cl)(Cl)Cl)c1cccc(Cl)c1` (centres undefined), with 15.8%. The result for `Cc1ccc(Cl)cc1N1CCN(CCCNC(=O)C2CCN(c3nc4ccccc4[nH]3)CC2)CC1` reads 5.88%; that for `COc1ccc2nc(-c3ccccc3)cc(N/N=C/c3ccc([N+](=O)[O-])o3)c2c1`, 7.35%; that for `Cc1nc(C)n(CC(=O)Nc2cccc(-c3cccc(-c4nc5cc(C(F)(F)F)ccc5[nH]4)c3)c2)n1`, 14%. Consider `Cc1ccc(O)cc1Nc1ccnc2ccc(-c3csc(CNCCN4CCOCC4)n3)cc12`, for which the IFI stood at 2.26%. Then `O=C(c1ccc(F)c2ccccc12)N1CCc2cc3nccc(N4CCN5CCC[C@H]5C4)c3cc21`, with 1.52%; and `CCc1cn2c3c(cc(C(=O)N[C@@H](Cc4cccc(F)c4)[C@H](O)CNC4CC4)cc13)N(C)S(=O)(=O)CC2`, with 4.72%; and `Cc1nnsc1C(=O)Nc1cccc(-c2ccc(-c3nc4ccccc4[nH]3)cc2)c1`, with 7.27%. The result for `CC(C)(C)CCN1CCC(NC(=O)c2ccc(-c3cccc(C(F)(F)F)c3)s2)CC1` reads 15.8%; that for `CC(C)c1ccc(NC(=O)N2CCc3ccc(OCCN(C(C)C)C(C)C)cc32)c(Br)c1`, 2.21%. Then `CCCNC(=O)CN1CN(c2ccccc2)C2(CCN(C(=O)c3ccc(C(C)(C)C)cc3)CC2)C1=O`, with 3.33%; and `N#Cc1cccc(NC(=O)C2=C(CCc3ccc4c(c3)OCO4)NC(=O)NC2c2cccc(C#N)c2)c1` (centres undefined), with 2.4%.

As to `Cc1ccc(CN2CCCCC(NC(=O)c3cc4ccccc4s3)C2)cc1` (centres undefined), the IFI amounted to 4.7%. Then `CCN(CCCN1CCCCC1)c1cc(C)nc(Nc2ccc(Cl)c(C(F)(F)F)c2)n1`, with 10.1%. `COc1cc(Cc2cnc(N)nc2N)ccc1OCc1ccc(-c2ccccc2C#N)cc1`: the IFI is 9.8%. The result for `CCC1CCCCN1S(=O)(=O)c1ccc(NC(=O)c2cc(C)on2)cc1` (centres undefined) reads 7.5%; that for `COc1ccc(C(=O)N2CCN(c3ccc([N+](=O)[O-])c(NC4CC4)c3)CC2)cc1Br`, 2.86%. The compound `CCc1c[nH]c2c(N3CCCC3=O)cc(C(=O)N[C@@H](Cc3ccccc3)[C@H](O)CNC(C)(C)c3cccc(C(F)(F)F)c3)cc12` showed an IFI of 3.52%. The result for `Cc1cc(N2CCC(C)CC2)nc2cc(O)ccc12` reads 0.98%; that for `Cc1cc(NCCc2ccccc2)nc(NC(=N)Nc2ccccc2Cl)n1`, 6.9%.

For the compound `O=C(c1ccccc1)N1CCC[C@](CCCN2CCN(c3ccccc3O)CC2)(c2ccc(Cl)c(Cl)c2)C1`, the IFI was 7.04%. Turning to `Cc1cc(N(C)C)nc(Nc2ccc(NC(=O)CCc3ccccc3)cc2)n1`, the IFI came to 6.82%. The result for `COc1cc2nc(N3CCN(C(=O)c4c(Cl)nsc4-c4ccccc4Cl)CC3)nc(N)c2cc1OC` reads 7.76%. `c1ccc(-c2cccnn2)cc1` registered an IFI of 0.73%. The result for `c1csc(-c2nc(N3CCCC3)ncc2-c2ccsc2)n1` reads 7.95%; that for `CC1CN(Cc2cccc(F)c2)CCN1c1ccc(NC(=O)c2ccc(F)cc2)cc1` (centres undefined), 0%; that for `COc1ccccc1-c1cccc2c(NC(=O)Nc3ccc4nccc(N5CCN(C)CC5)c4c3)ccnc12`, 0.72%. Consider `CCOc1ccc2[nH]c(-c3ccccc3)cc(=NN=Cc3ccncc3)c2c1`, for which the IFI came out at 2.16%. The result for `O=C(CCc1ccccc1)NC(c1ccc(Cl)cc1)c1ccc2cccnc2c1O` (centres undefined) reads 7.48%; that for `CCOC(=O)C1=C(C)NC2=C(C(=O)CC(C)(C)C2)C1c1ccc(Cl)cc1` (centres undefined), 0.74%; that for `COc1cccc2c(N/N=C/c3cccc([N+](=O)[O-])c3)ccnc12`, 4.26%. With `Cc1cccc2nc(-c3cccc(-c4ccc(NC(=O)Nc5ccc(F)c(F)c5F)cc4)c3)[nH]c12`, the IFI is 5.83%. Regarding `CN(C)c1ccc(CN2CCCCC(NC(=O)c3cc(-c4ccccc4Cl)cs3)C2)cc1` (centres undefined), the IFI is 3.64%. The result for `O=C(/C=C/c1ccc(Cl)cc1)NCCCCCN1CCCC(C(=O)Nc2ccc(Cl)cc2)C1` (centres undefined) reads 9.52%; that for `CCOc1cc(C)ccc1C1CCN(CCCCNC(=O)c2ccc(NC(=O)c3cc(Cl)cc(Cl)c3)cc2)CC1`, 3.76%; that for `CC(C)c1ccc(CN2CCCCC(NC(=O)c3cc(-c4ccccc4F)cs3)C2)cc1` (centres undefined), 0%. The result for `Cc1nnsc1C(=O)Nc1cccc(-c2ccc(-c3nc4cc(F)ccc4[nH]3)cc2)c1` reads 7.21%. The result for `CCCc1cn2c3c(cc(C(=O)N[C@@H](Cc4ccccc4)[C@H](O)CNC4CCCCC4)cc13)N(C)S(=O)(=O)CC2` reads 5.47%; that for `COc1cc(Cc2cnc(N)nc2N)c2c(c1OC)OC(C)(C)C=C2`, 0.7%.

In turn, `CN1c2ccc([N+](=O)[O-])cc2C(C)(C)C12C=Cc1cc(Br)cc([N+](=O)[O-])c1O2` (centres undefined) had an IFI of 0.75%. Compound `Oc1ccc2[nH]cc(C3CCN(CCC(c4ccccc4)c4ccccc4)CC3)c2c1` had an IFI of 7.97%. The result for `O=S(=O)(NCCN1CCCC1)c1ccc(-c2ccc(CNC3Cc4ccccc4C3)cc2)cc1F` reads 10.5%.

`FC(F)(F)c1ccc2c(NCCNc3ccnc4cc(C(F)(F)F)ccc34)ccnc2c1` came in with an IFI of 0%. The result for `COc1ccccc1-n1c(SCC(=O)Nc2ccccc2F)nc2cccnc21` reads 1.46%; that for `O=C(NCCN1CCOCC1)c1ccc(N2CCC(Oc3ccc4ccccc4c3)CC2)nc1`, -0%; that for `CCN(CC)CCN(Cc1ccc(-c2ccc(C(F)(F)F)cc2)cc1)C(=O)Cn1c(CCc2cccc(F)c2F)nc(=O)c2cc(F)c(F)cc21`, 3.7%. Then `Cc1cc(C)c2nc(N3CCC(C(=O)NCCCN4CCC(N5CCCCC5)CC4)CC3)sc2c1`, with 12.5%; and `CC(C)(C)NCCN(Cc1ccc(-c2ccc(C(F)(F)F)cc2)cc1)C(=O)Cn1c(CCc2cccc(F)c2F)nc(=O)c2ccccc21`, with 8.96%; and `CCc1cn2c3c(cc(C(=O)N[C@@H](Cc4ccccc4)[C@H](O)CNC4CCCCC4)cc13)N(CC)S(=O)(=O)CC2`, with 2.14%. The result for `CN(CCC(O)c1ccc(Cl)c(Cl)c1)CC1CC1C(=O)c1ccccc1` (centres undefined) reads 3.67%. Turning to `Cc1cc(S(=O)(=O)N2CCCCC(c3ccc(C(F)(F)F)cc3)=N2)c(Cl)cc1Cl`, the IFI worked out at 2.19%. Then `Cc1c(Br)cc2nc(-c3ccc(C(=O)NC4CCN(Cc5ccccc5)CC4)cc3)[nH]c2c1C`, with 2.22%.

Regarding `Fc1cccc(Nc2nc(NCc3ccc(OCc4ccccc4)cc3)nc(Nc3cccc(F)c3)n2)c1`, the IFI was -0%.

Consider `Cc1cccc2nc(-c3ccc(-c4cccc(C(=O)NCCc5cn(C)cn5)c4)s3)[nH]c12`, for which the IFI amounted to 7.55%. Then `COc1ccc(OCCON)cc1`, with -0%; and `COc1cc2c(c(Cl)c1OC)CCN(C(=O)C(F)(F)F)CC2c1ccccc1` (centres undefined), with 0.81%; and `CN1CCN(CCCN(Cc2ccc(-c3cccc(CNCc4ccc5c(c4)OCO5)c3)cc2)C(=O)Nc2ccccc2)CC1`, with 5.84%. `CCCCCNc1ccnc2cc(Cl)ccc12`: the IFI was determined as 3.65%.

`CNc1cc(-c2ccc3ccnc(N)c3c2)nc(N)n1` returned an IFI of 1.83%. The result for `CN(C)CC(=O)Nc1cccc(Nc2nccc(NCC(O)c3ccccc3)n2)c1` (centres undefined) reads 4.21%; that for `CCCCCCCN1CC[C@@H](CCCc2ccnc3ccc(OCCCCN/C(N)=N/O)cc23)[C@@H](CC)C1`, 9.66%.

The compound `O=C(NCCCCN1CCC(c2ccc(Br)cc2)CC1)c1ccc(NC(=O)c2ccc(Cl)cc2)cc1` displayed an IFI of 4.55%.
